Results on 6 molecules are retold here after patent US20230303648A1 (OSE IMMUNOTHERAPEUTICS, published 2023).

For assay [1], the target named is T1, IL-7 receptor (IL-7R: CD127/CD132) on cells (human, UniProt P16871 21-459; P31785 23-369).
T1 sequence (looked up) 1: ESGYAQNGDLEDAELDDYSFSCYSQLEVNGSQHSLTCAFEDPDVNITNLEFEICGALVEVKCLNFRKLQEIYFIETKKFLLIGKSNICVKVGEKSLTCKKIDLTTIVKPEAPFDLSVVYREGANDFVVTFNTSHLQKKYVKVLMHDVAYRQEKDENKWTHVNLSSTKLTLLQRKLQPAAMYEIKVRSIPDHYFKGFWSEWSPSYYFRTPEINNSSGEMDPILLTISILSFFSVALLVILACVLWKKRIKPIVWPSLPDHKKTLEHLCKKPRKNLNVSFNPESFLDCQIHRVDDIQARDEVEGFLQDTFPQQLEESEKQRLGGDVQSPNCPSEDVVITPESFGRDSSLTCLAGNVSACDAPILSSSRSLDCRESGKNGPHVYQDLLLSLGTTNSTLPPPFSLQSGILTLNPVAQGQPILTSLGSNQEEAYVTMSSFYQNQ
T1 sequence (looked up) 2: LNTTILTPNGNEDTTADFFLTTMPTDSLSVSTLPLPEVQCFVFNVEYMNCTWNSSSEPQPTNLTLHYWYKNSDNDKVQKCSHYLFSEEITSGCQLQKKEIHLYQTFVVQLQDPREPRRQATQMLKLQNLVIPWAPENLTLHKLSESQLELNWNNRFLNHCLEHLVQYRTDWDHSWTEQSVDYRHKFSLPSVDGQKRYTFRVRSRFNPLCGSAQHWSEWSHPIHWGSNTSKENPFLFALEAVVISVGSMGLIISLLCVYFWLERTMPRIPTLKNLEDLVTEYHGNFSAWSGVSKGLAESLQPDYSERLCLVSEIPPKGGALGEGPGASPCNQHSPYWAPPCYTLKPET
The experiment in a line: cell-based or functional assay.

For assay [2], the target named is T2, CD127 recombinant protein (Histidine tagged, Sino ref 10975-H08H) (UniProt P16871 21-239).
T2 construct: bought; used in the CD127 sandwich ELISA; also called CD127 receptor; IL-7Ralpha; not shown: histidine tag
T2 sequence (looked up): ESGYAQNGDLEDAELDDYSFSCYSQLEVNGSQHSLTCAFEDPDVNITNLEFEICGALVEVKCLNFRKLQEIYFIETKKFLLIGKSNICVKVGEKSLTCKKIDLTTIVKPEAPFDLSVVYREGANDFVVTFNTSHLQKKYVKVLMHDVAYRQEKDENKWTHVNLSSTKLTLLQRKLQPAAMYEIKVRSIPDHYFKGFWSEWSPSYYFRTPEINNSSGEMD
The experiment in a line: sandwich ELISA: PD-1 immobilised, fusion preincubated with His-tagged CD127, anti-His detection. Background: ELISA stands for enzyme-linked immunosorbent assay.

Assay [3] addresses T3, human PD-1 and human CD127 co-expressed on cells (Jurkat, CHO or U937) (human, UniProt Q15116 25-288; P16871 21-459).
T3 construct: whole, on cells; two separate receptors on one cell, not a complex; also called PD-1+CD127+ cells; PD-1(+)CD127(+) cells
Nature of the assay: flow cytometry, 1:1 co-culture of CHO PD-1+CD127+ and CHO PD-1-CD127+ cells, anti IgG-PE; number printed over the pair of bars. On the technique in general: In flow cytometry, cells or beads pass a laser one at a time.

The target in assay [4] is T4, recombinant human PD-1 (rPD1; Sino Biologicals, reference 10377-H08H) (human, UniProt Q15116 partial chain).
T4 construct: bought; also called hPD1; PD-1 receptor
The experiment in a line: ELISA: human PD-1 immobilised (given as ED50).

In assay [5] the target is T2, CD127 recombinant protein (Histidine …). Nature of the assay: double binding ELISA: PD-1 immobilised, revelation with CD127 receptor (given as ED50).
Assay [6] deals with T5, CD127 (Sinobiological, 10975-H03H-50) (UniProt P16871 21-239).
T5 construct: bought; immobilised on the CM5 chip in the Biacore assays; also called CD127 receptor
T5 sequence (looked up): T2 sequence (looked up)
The experiment in a line: Biacore: CD127 immobilised on CM5 chip, fusion as analyte (0.35-30 nM), two-state reaction model. Background: SPR reads the build-up and loss of mass on a sensor chip optically.

Assay [7] addresses T4, recombinant human PD-1 (rPD1; Sino …). Nature of the assay: ELISA, recombinant human PD-1 immobilised, anti-human Fc-peroxidase, TMB, 450 nm [Following) C].

B1: anti PD-1 IL-7 D74E bifunctional molecule, IgG4m isotype, (GGGGS)3 linker (other)
heavy: QIQLVQSGSELKKPGASVKVSCKASGYTFTHYAMNWVRQAPGQGLEWMGWINTNTGEPTYAQGFTGRFVFSLDTSVSTAYLQISSLKAEDTAVYYCAREREPGMDNWGQGTLVTVSSASTKGPSVFPLAPCSRSTSESTAALGCLVKDYFPEPVTVSWNSGALTSGVHTFPAVLQSSGLYSLSSVVTVPSSSLGTKTYTCNVDHKPSNTKVDKRV[… human IgG4 Fc with S228P L445P (EU numbers) …]GGGGSGGGGSGGGGSDCDIEGKDGKQYESVLMVSIDQLLDSMKEIGSNCLNNEFNFFKRHICDANKEGMFLFRAARKLRQFLKMNSTGEFDLHLLKVSEGTTILLNCTGQVKGRKPAALGEAQPTKSLEENKSLKEQKKLNDLCFLKRLLQEIKTCWNKILMGTKEH
light: DVVMTQSPLSLPVTLGQPASISCRSSQSLVHANTNTYLEWYQQRPGQSPRLLIYKVSNRFSGVPDRFSGSGSGTDFTLKISRVEAEDVGVYYCFQGTHVPNTFGQGTKLEIKRTVAAPSVFIFPPSDEQLKSGTASVVCLLNNFYPREAKVQWKVDNALQSGNSQESVTEQDSKDSTYSLSSTLTLSKADYEKHKVYACEVTHQGLSSPVTKSFNRGEC
notes: as m11 with IL-7 D74E; also called IgG4 G4S3 IL7 D74E; IgG4 G4S3 IL7D74E
On to B1, for which, in assay [1], the “pSTAT5 EC50 in CD3 T cells of human PBMCs” value was 389 ng/mL. The half-maximal effective concentration (EC50) (as a rule, the concentration that produces a half-maximal response) in assay [2] turned out to be 104 ng/mL.

B2: Anti PD-1 IL-7 wt (other)
heavy: QIQLVQSGSELKKPGASVKVSCKASGYTFTHYAMNWVRQAPGQGLEWMGWINTNTGEPTYAQGFTGRFVFSLDTSVSTAYLQISSLKAEDTAVYYCAREREPGMDNWGQGTLVTVSSASTKGPSVFPLAPCSRSTSESTAALGCLVKDYFPEPVTVSWNSGALTSGVHTFPAVLQSSGLYSLSSVVTVPSSSLGTKTYTCNVDHKPSNTKVDKRV[… human IgG4 Fc with S228P L445P (EU numbers) …]GGGGSGGGGSGGGGSDCDIEGKDGKQYESVLMVSIDQLLDSMKEIGSNCLNNEFNFFKRHICDANKEGMFLFRAARKLRQFLKMNSTGDFDLHLLKVSEGTTILLNCTGQVKGRKPAALGEAQPTKSLEENKSLKEQKKLNDLCFLKRLLQEIKTCWNKILMGTKEH
light: B1 light
notes: it is either m11 (IgG4m) or m24 (IgG1m), which of the two cannot be told
Turning to B2, the “fold difference of the binding EC50, PD1-CD127+ cells over PD1+CD127+ cells” value in assay [3] is 6 fold.

B3: anti-PD-1 bifunctional molecule comprising IL-7 D74E, GGGGS linker, IgG1N298A isotype (other)
heavy: QIQLVQSGSELKKPGASVKVSCKASGYTFTHYAMNWVRQAPGQGLEWMGWINTNTGEPTYAQGFTGRFVFSLDTSVSTAYLQISSLKAEDTAVYYCAREREPGMDNWGQGTLVTVSS[… human IgG1 constant region with changes …]GGGGSDCDIEGKDGKQYESVLMVSIDQLLDSMKEIGSNCLNNEFNFFKRHICDANKEGMFLFRAARKLRQFLKMNSTGEFDLHLLKVSEGTTILLNCTGQVKGRKPAALGEAQPTKSLEENKSLKEQKKLNDLCFLKRLLQEIKTCWNKILMGTKEH
light: B1 light
notes: also called IgG1m G4S D74E
Consider B3, for which the results for the EC50 in assay [4] and in assay [5] were 6.4 ng/mL and 4.9 ng/mL, respectively.

B4: anti PD-1 IL-7 SS3 bifunctional molecule, IgG4m isotype, (GGGGS)3 linker (other)
heavy: QIQLVQSGSELKKPGASVKVSCKASGYTFTHYAMNWVRQAPGQGLEWMGWINTNTGEPTYAQGFTGRFVFSLDTSVSTAYLQISSLKAEDTAVYYCAREREPGMDNWGQGTLVTVSSASTKGPSVFPLAPCSRSTSESTAALGCLVKDYFPEPVTVSWNSGALTSGVHTFPAVLQSSGLYSLSSVVTVPSSSLGTKTYTCNVDHKPSNTKVDKRV[… human IgG4 Fc with S228P L445P (EU numbers) …]GGGGSGGGGSGGGGSDCDIEGKDGKQYESVLMVSIDQLLDSMKEIGSNSLNNEFNFFKRHISDANKEGMFLFRAARKLRQFLKMNSTGDFDLHLLKVSEGTTILLNSTGQVKGRKPAALGEAQPTKSLEENKSLKEQKKLNDLSFLKRLLQEIKTCWNKILMGTKEH
light: B1 light
notes: as m11 with IL-7 SS3; also called IGG4 G4S3 IL7 SS3; IgG4 Fc G4S3 Fc IL-7 SS3
On to B4, for which the “pSTAT5 EC50 in CD3 T cells of human PBMCs (second experiment, other donor)” value in assay [1] turned out to be 4350 ng/mL. In assay [6], the Kd (in general, the constant that tells how readily two partners part at equilibrium) turned out to be 1360 nM; the “Kd2” value was 0.000602 s⁻¹; the on-rate constant (kon) (usually the rate constant with which the complex forms) is 1960 M⁻¹ s⁻¹. Besides, in assay [7], the binding result is “binds”.

B5: anti PD-1 IL-7 SS1 bifunctional molecule, IgG4m isotype, (GGGGS)3 linker (other)
heavy: QIQLVQSGSELKKPGASVKVSCKASGYTFTHYAMNWVRQAPGQGLEWMGWINTNTGEPTYAQGFTGRFVFSLDTSVSTAYLQISSLKAEDTAVYYCAREREPGMDNWGQGTLVTVSSASTKGPSVFPLAPCSRSTSESTAALGCLVKDYFPEPVTVSWNSGALTSGVHTFPAVLQSSGLYSLSSVVTVPSSSLGTKTYTCNVDHKPSNTKVDKRV[… human IgG4 Fc with S228P L445P (EU numbers) …]GGGGSGGGGSGGGGSDSDIEGKDGKQYESVLMVSIDQLLDSMKEIGSNSLNNEFNFFKRHICDANKEGMFLFRAARKLRQFLKMNSTGDFDLHLLKVSEGTTILLNCTGQVKGRKPAALGEAQPTKSLEENKSLKEQKKLNDLSFLKRLLQEIKTSWNKILMGTKEH
light: B1 light
notes: as m11 with IL-7 SS1; also called SS1 mutant (C2S-C141S + C34S-C129S)
Take B5: in assay [7], the EC50 (read off the curve) (commonly the concentration that produces a half-maximal response) was ~9 ng/mL.

B6: anti PD-1 IL-7 M17L bifunctional molecule, IgG4m isotype, (GGGGS)3 linker (other)
heavy: QIQLVQSGSELKKPGASVKVSCKASGYTFTHYAMNWVRQAPGQGLEWMGWINTNTGEPTYAQGFTGRFVFSLDTSVSTAYLQISSLKAEDTAVYYCAREREPGMDNWGQGTLVTVSSASTKGPSVFPLAPCSRSTSESTAALGCLVKDYFPEPVTVSWNSGALTSGVHTFPAVLQSSGLYSLSSVVTVPSSSLGTKTYTCNVDHKPSNTKVDKRV[… human IgG4 Fc with S228P L445P (EU numbers) …]GGGGSGGGGSGGGGSDCDIEGKDGKQYESVLLVSIDQLLDSMKEIGSNCLNNEFNFFKRHICDANKEGMFLFRAARKLRQFLKMNSTGDFDLHLLKVSEGTTILLNCTGQVKGRKPAALGEAQPTKSLEENKSLKEQKKLNDLCFLKRLLQEIKTCWNKILMGTKEH
light: B1 light
notes: as m11 with IL-7 M17L; also called IGG4 G4S3 IL7 M17L
With B6, the “pSTAT5 EC50 in CD3 T cells of human PBMCs” value in assay [1] is 128 ng/mL. The EC50 in assay [2] is 21 ng/mL.
